The full ranking holds about 33,000 sequences; the median of “E-score (-0.5 to 0.5)” is about -0.036, and the highest 2% start at about 0.37. This is one part of the list.

In the experiment the target is T1, Yer064c (UniProt P40041).
T1 sequence: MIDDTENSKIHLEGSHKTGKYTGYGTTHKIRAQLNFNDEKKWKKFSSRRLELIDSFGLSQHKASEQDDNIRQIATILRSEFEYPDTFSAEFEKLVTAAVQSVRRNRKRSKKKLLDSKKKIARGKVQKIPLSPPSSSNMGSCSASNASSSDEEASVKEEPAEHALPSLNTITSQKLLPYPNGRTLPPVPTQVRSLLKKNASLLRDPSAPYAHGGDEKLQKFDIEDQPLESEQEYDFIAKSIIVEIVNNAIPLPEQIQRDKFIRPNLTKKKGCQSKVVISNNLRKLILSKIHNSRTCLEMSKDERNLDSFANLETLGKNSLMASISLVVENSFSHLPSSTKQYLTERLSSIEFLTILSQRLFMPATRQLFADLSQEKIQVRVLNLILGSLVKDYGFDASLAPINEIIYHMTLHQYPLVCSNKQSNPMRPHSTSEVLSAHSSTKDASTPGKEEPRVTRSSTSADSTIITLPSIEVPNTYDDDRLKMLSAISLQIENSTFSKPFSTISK
Description: PBM E-score (8-mer binding enrichment) (E-score (-0.5 to 0.5)); higher = stronger / more preferred TF binding; most listed sequences are background and not binding sites. As to conditions: protein concentration: 200 nM; construct: GST-full length. The method, then: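 Universal 'all 10-mer' protein binding microarrays (Agilent AMADID 015681) probed with GST-tagged S. cerevisiae TFs (full-length or DBD) made by in vitro transcription/translation (PURExpress), about 100-200 nM. Bound TF was detected with fluorescent anti-GST. Each ungapped 8-mer (which stands for itself and its reverse complement) is scored by the PBM enrichment score (E-score), a modified Wilcoxon-Mann-Whitney statistic from -0.5 to +0.5, computed with the Universal PBM Analysis Suite. Scale: above 0.35 generally sequence-specific binding.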
With ATAGATGA, the “PBM E-score” value is 0.279.
As for ATCCTTAC, the figure is -0.0116.
Then CAGAGCCA, with 0.00676.
Then AGGCTTTA, with -0.0519; and CGGGCAAA, with -0.112.
In the case of ACACGGAA, the “PBM E-score” value was 0.105.
For the sequence ATAAATAA, the “PBM E-score” value worked out at 0.133.
Then CAATGGAA, with 0.00249; and GTGAGCCA, with 0.344.
As for ATAAGTAA, the figure is 0.196; as for CCTCTTCA, -0.213; as for CTTTACTA, 0.12.
As for CCGTGAAA, the figure is -0.0073; as for CGGGATCC, -0.206; as for ACGGTTTG, -0.119.
With GCCCCTGA, the “PBM E-score” value is -0.0434.
On to AACTTGCA, for which the “PBM E-score” value was -0.132.
Take AGCGTGGG: the “PBM E-score” value is -0.262.
As for AGATTATG, the figure is 0.125; as for AATTAGCC, -0.034.
As to CACATGCG, the “PBM E-score” value came to 0.045.
As for ACATCATA, the figure is 0.107.
Then CCATCCCC, with -0.243; and TCGTCACA, with -0.0543; and AGAAAAAC, with -0.162.
Then CTCTTAGA, with 0.0953; and ATTACGAG, with 0.121; and CCGGTCCC, with -0.291.
Regarding TACCAAAA, the “PBM E-score” value was -0.00281.
Then CATTCTTC, with -0.0285.
For the sequence GTAACGAC, the “PBM E-score” value was 0.00696.
As for ATGGGCTG, the figure is -0.0763; as for AGATACGA, 0.0569.
In the case of CACTAGCA, the “PBM E-score” value was -0.121.
As for CAGGGACG, the figure is -0.169.
Consider TCGGCCAA, for which the “PBM E-score” value is -0.185.
On to CGAATGGC, for which the “PBM E-score” value was -0.0891.
Then TAGCTCCA, with -0.0907.
Then AGTGGCGG, with -0.0561; and CGAACCGA, with -0.0881.
As for TCGTGCCA, the figure is -0.0996.
With GGCCACGA, the “PBM E-score” value was -0.03.
On to CCCACTGC, for which the “PBM E-score” value is -0.0844.
Then CAGCCCAA, with -0.0932; and CCACTTTC, with -0.201; and AATCACCA, with 0.374.
As for AACTAAAT, the figure is 0.208.
Then ACAGGCCC, with -0.39.
For the sequence GTGGAGGA, the “PBM E-score” value was -0.0633.
As to CTGACTGC, the “PBM E-score” value came out at 0.348.
In the case of AGCTGGTA, the “PBM E-score” value is -0.173.
Then CTCAGTCA, with 0.436; and GGAAATTA, with -0.0635; and GACACGCC, with -0.174.
As for ATTAGAGC, the “PBM E-score” value was 0.034.
As for ACATCGAT, the figure is 0.00682; as for TACTCAGA, 0.241.
As for ACTAAGGA, the figure is 0.128; as for CGGATAGC, -0.168.
Then TCGCCCGA, with -0.0643; and GATTTGAA, with 0.121; and CCGTCAAA, with -0.179.
As to GAGAGCCC, the “PBM E-score” value is -0.232.
As for ACAGTCTG, the figure is -0.0791.
As for GAGCCAGA, the figure is 0.113; as for AACTCGCT, 0.068.
Then CAAATTTC, with 0.0245; and TACGATAA, with 0.0301.
For the sequence AGCTCGCA, the “PBM E-score” value was -0.0722.
For the sequence GACCACTC, the “PBM E-score” value was -0.0747.
For AGCATCAT, the “PBM E-score” value was -0.118.
On to ACATACCG, for which the “PBM E-score” value is -0.0792.
As for CTCGCGAA, the figure is -0.116; as for AAAGGAAG, -0.0963; as for GCCTGATA, -0.0848.
As for GTACCTCA, the figure is 0.118; as for CTAGGCAC, -0.0402; as for CCGAATTC, -0.141.
Then GACATGAC, with 0.33.
As to GGTAATTA, the “PBM E-score” value is 0.0662.
As for CGACGGCA, the figure is -0.251.
Then ATCACGGG, with 0.0804.
Then AAGCTCTA, with 0.0199; and GGAAGTAA, with -0.12.
On to CGCTGGAA, for which the “PBM E-score” value is -0.192.
As for CATTCCCC, the figure is -0.116; as for ACCATGTC, 0.0414; as for CGGTTTTA, -0.0271.
As for CCTAAGCA, the figure is -0.00923; as for GCGTGACA, -0.102; as for CTGCTATA, -0.0966.
In the case of GAAATGCA, the “PBM E-score” value was found to be 0.00611.
Then GCGCTGCC, with -0.264.
Then CAATCGAG, with 0.0155; and CAAAAGGG, with -0.0394; and TCTGCTCA, with -0.0594.
Then GAAAAGAC, with 0.286.
For the sequence CGCCTTAC, the “PBM E-score” value is -0.129.
For the sequence GACAAATC, the “PBM E-score” value is 0.00373.
Then CTAAGACA, with 0.0565; and AGGCCCTG, with -0.199.
Take GAAAAAAA: the “PBM E-score” value is -0.124.
As for CCGGTTTC, the figure is -0.127; as for CGCGCTGA, -0.011.
As for AGCAGTCC, the figure is -0.0176; as for GACATTCA, 0.178.
Then GTACACGA, with -0.00922; and CCGTATGA, with 0.281.
On to TTACTGAA, for which the “PBM E-score” value is 0.0197.

Values taken from the supplement of paper PMC3334620.
